# Measured values as given in PubChem BioAssay AID624417 (National Center for Advancing Translational Sciences (NCATS), 2012).
# The whole screen tested about 410,000 compounds, of which about 6,400 (1.6%) were called active. Inconclusive results, whose numbers are uncertain, are shown with a selection of clear calls. The call rests on the fitted dose curve; in most records, active means well fitted inhibition curve with a large enough effect; inconclusive means small, poorly fitted or top-dose-only effect; inactive means no such curve, though single readings can be large or run the other way. Potencies of inconclusive entries are left out as doubtful fits.
# Molecular target: Glucagon-like peptide 1 receptor (Homo sapiens) (UniProt P43220)
# Experiment: qHTS of GLP-1 Receptor Inverse Agonists (Inhibition Mode); further: nearly all actives have a fitted effect of over 55% in size
# Settings: HEK293 GLP-1R CRE-luciferase, luminescence, 24 h, GLP-1R form is constitutively active; series mostly up to 38.3 µM
# Outline: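 qHTS in 1536-well format: reporter HEK293 cells expressing constitutive GLP-1R activity in DMEM + 10% Nu serum, 24 hr with compounds at 37 deg C, luminescence read after 12 min with detection reagent.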
# Potency means the concentration at half of the fitted maximal effect; tags describe the fitted curve by direction and shape.
# Sequence of UniProt P43220 (P43220 whole entry, looked up): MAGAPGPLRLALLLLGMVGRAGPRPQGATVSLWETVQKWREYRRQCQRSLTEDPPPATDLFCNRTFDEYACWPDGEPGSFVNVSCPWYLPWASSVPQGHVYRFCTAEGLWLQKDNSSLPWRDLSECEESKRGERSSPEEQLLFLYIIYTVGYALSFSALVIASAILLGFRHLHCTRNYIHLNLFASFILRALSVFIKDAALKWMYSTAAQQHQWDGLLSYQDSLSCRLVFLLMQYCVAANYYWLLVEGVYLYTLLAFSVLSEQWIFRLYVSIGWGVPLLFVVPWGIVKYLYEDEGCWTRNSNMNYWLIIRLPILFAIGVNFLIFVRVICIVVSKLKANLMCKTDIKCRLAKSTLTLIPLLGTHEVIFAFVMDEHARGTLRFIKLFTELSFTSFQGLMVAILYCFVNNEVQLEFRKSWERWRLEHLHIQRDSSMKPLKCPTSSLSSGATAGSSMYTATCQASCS
row,SMILES,Potency
1,COc1ccc(C)cc1NC(=O)c1cc2c(s1)CCC2,"inconclusive [inhibitor, single point]"
2,O=C(O)CCc1ccc(-c2ccc(Br)cc2)o1,inactive
3,CC(=O)Nc1ccc(Sc2ncccc2C(=O)Nc2ccc(OC(F)(F)F)cc2)cn1,inactive
4,CCCCCCN1C[C@H](n2cc(C3CC3)nn2)[C@@H](O)C[C@@H]1c1ccc(OC)cc1,"inconclusive [inhibitor, single point]"
5,CCOc1ccccc1N1CC(c2nc3ccccc3n2CCOc2ccc(OC)cc2)CC1=O (stereo not drawn),"inconclusive [inhibitor, single point]"
6,CCOC(=O)C1=C(N)Oc2ccc3ccccc3c2C1c1ccc(O)c(OC)c1 (stereo not drawn),"inconclusive [inhibitor, single point]"
7,O=C(NCCc1csc(-c2cccnc2)n1)c1ccc(Cl)cc1,"inconclusive [inhibitor, partial curve, poor fit]"
8,O=C(O)c1[nH]c2ccccc2c1C(c1cc(Br)ccc1O)c1c(C(=O)O)[nH]c2ccccc12,inactive
9,CCOC(=O)Cc1csc(NC(=S)NC(=O)c2ccc(C)cc2)n1,"inconclusive [inhibitor, single point]"
10,CC(NC(=O)OCc1ccccc1)C(=O)Oc1cc2oc(=O)cc(-c3ccccc3)c2cc1Cl (stereo not drawn),"inconclusive [inhibitor, single point]"
11,CCOc1ccccc1NC(=O)CN(c1ccc(OC)cc1)S(=O)(=O)c1c(C)noc1C,"inconclusive [inhibitor, single point]"
12,Cc1cc(C)n(-c2nc3cc(Cl)c(Cl)cc3nc2Nc2ccc(F)cc2C)n1,inactive
13,COC(=O)CN1C(=O)Nc2ccc(Br)cc2C1c1ccccc1 (stereo not drawn),"inconclusive [inhibitor, single point]"
14,COc1cc(C(CCN2CCCC(C)C2)c2c(OC)cc(OC)c3c(-c4ccccc4)cc(=O)oc23)cc(OC)c1OC (stereo not drawn),"inconclusive [inhibitor, single point]"
15,C=CCNC(=O)c1c2c(nc3ccccc13)-c1ccccc1CC2,"inconclusive [inhibitor, single point]"
16,Cc1ccc(Cl)cc1NC(=O)C[n+]1ccc(Cc2ccc([N+](=O)[O-])cc2)cc1,"inconclusive [inhibitor, single point]"
17,CCc1nc2ccccc2n1Cc1ccc(F)cc1,"inconclusive [inhibitor, partial curve, poor fit]"
18,O=C(c1ccc(Cl)cc1)N1CCCCC1CCN1CCOCC1 (stereo not drawn),inactive
19,Cc1cccc(CS(=O)(=O)c2ncc(Cl)c(C(=O)Nc3ccc(F)cc3)n2)c1,"inconclusive [inhibitor, partial curve, poor fit]"
20,CCCCCCC(=O)N(O)C1CC(=O)N(c2ccc(Cl)cc2)C1=O (stereo not drawn),inactive
21,Cc1ccc(Nc2nc(NCC3CC3)nc3ccsc23)c(C)c1,"inconclusive [inhibitor, full curve, poor fit]"
22,Cc1cccc(NC(=O)CSCC(=O)Nc2cc(Cl)ccc2N2CCOCC2)c1,"inconclusive [inhibitor, partial curve, poor fit]"

row,SMILES,Potency
1,CN(C(=S)NC(=O)C1CCCC1)c1ccccc1,inactive
2,COc1ccc(C(C)C)cc1S(=O)(=O)NCc1ccccn1,inactive
3,CCCCCCCCCCn1c2c(c(=N)c3c1CCC3)CCC2,"inconclusive [inhibitor, partial curve, poor fit]"
4,CC1(C)C(=O)Nc2ccccc2N1C(=O)COc1cc(Cl)ccc1Cl,"inconclusive [inhibitor, single point]"
5,O=C(c1ccc(OC2CCN(C/C=C/c3ccc(F)cc3)CC2)cc1)N1CCCC1,active: 3.16 µM
6,CCc1ccccc1NC(=O)Cc1ccc(-n2c(C)nc3cccnc32)cc1,inactive
7,CCN(CC)C(=O)C1=C(C)N(CCC2=CCCCC2)C(=O)C(CC(=O)NC(c2ccccc2)c2ccccc2)C1 (stereo not drawn),"inconclusive [inhibitor, single point]"
8,CCOc1nc(NC(=O)NS(=O)(=O)Oc2cccc(F)c2)nc(-c2ccccc2)n1,inactive
9,CC(=O)Nc1nonc1-c1nnc(SCc2ccccc2C)n1C,inactive
10,CC1=CC(=O)C=C(C)C1=NOS(=O)(=O)c1ccccc1,"inconclusive [inhibitor, single point]"
11,CC(C)(C)OC(=O)NCCc1onc(-c2ccccc2F)c1C(=O)O,inactive
12,CC1(C(=O)NCc2ccncc2)Cc2c(-c3cccc(C(F)(F)F)c3)ccnc2O1 (stereo not drawn),"inconclusive [inhibitor, single point]"
13,C=CCOc1ccc(CN(C)CC(=O)Nc2ccccc2[N+](=O)[O-])cc1,"inconclusive [inhibitor, partial curve, poor fit]"
14,CC(C)Cn1c(=O)c2sccc2n2c(CCCC(=O)NCC(C)c3ccccc3)nnc12 (stereo not drawn),inactive
15,CC1(C(=O)Nc2cccc3cccnc23)CCN1Cc1cccc2c1OCO2 (stereo not drawn),"inconclusive [inhibitor, partial curve, poor fit]"
16,Cc1c(C(=O)NC2CCCCC2)oc2ccccc12,"inconclusive [inhibitor, single point]"
17,CC(C)c1nnc(NC(=O)c2nc(S(=O)(=O)Cc3ccc(F)cc3)ncc2Cl)s1,"inconclusive [inhibitor, partial curve, poor fit]"
18,O=C(NC1CC1)c1ccc(CN(c2ccccc2)S(=O)(=O)c2ccccc2)cc1,"inconclusive [inhibitor, partial curve, poor fit]"
19,O=C1OC(OC2CCCCC2)(c2ccccc2)c2ccccc21 (stereo not drawn),"inconclusive [inhibitor, partial curve, poor fit]"
20,O=C(Nc1ccc(O)cc1)c1ccc(NC(=O)c2cccs2)cc1,"inconclusive [inhibitor, full curve]"
21,CCOc1ccc2nc(SC3CC(=O)N(c4ccc(OC)cc4OC)C3=O)sc2c1 (stereo not drawn),inactive
